# Measurements: a collection of fitness landscapes (doi:10.1016/j.celrep.2020.107928)
# In all, about 81,000 sequences were measured (“one-hybrid fitness for binding NBS DNA”: median about -0.1, highest 2% from about 0.36 on). The list shows a part of the results.
# B1: Caulobacter ParB omega fusion; a variant is named by its letters at X, in order, B8GW30 (parent)
# chain: MESVVVGEPGMSEGRRGLGRGLSALLGEVDAAPAQAPGEQLGGSREAPIEILQRNPDQPRRTFREEDLEDLSNSIREKGVLQPILVRPSPDTAGEYQIVAGERAWRAAQRAGLKTVPIMVRELDDLAVLEIGIIENVQRADLNVLEEALSYKVLMEKFERTQENIAQTIGKSXSHVANXMRLLXLPDEVQSYLVSGELTAXHARAIAAAADPVALAKQIIEGGLSVRETEALARKAPNLSAGKSKGGRPPRVKDTDTQALESDLSSVLGLDVSIDHRGSTGTLTITYATLEQLDDLCNRLTRGI
# Variants of: B1
# Experiment: one-hybrid fitness for binding NBS DNA (the Noc-binding site; scaled: cognate 1, non-cognate 0); higher = stronger binding
# Settings: with NBS DNA site
# Summary of the method: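 Pre- and post-selection plasmids were Illumina-sequenced, three replicate libraries were pooled, and any variant with under 10 reads was removed. The libraries were Caulobacter ParB with four specificity codons randomised, selected in E. coli USO through a HIS3 reporter whose site is 19 bp from the promoter. Cells grew 48 hours at 37°C on M9 without histidine, with 0.1 mM IPTG and 5 mM 3-AT. Fitness is the log change in variant-to-wild-type read ratio, rescaled against cognate and non-cognate.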
row,Variant,one-hybrid fitness for binding NBS DNA
1,WGSD,≤ 0.2
2,TKHR,≤ 0.2
3,GRPN,≤ 0.2
4,FRKR,0.278
5,YPMK,≤ 0.2
6,VNEG,≤ 0.2
7,QYPI,≤ 0.2
8,PLGW,≤ 0.2
9,HPHL,≤ 0.2
10,PAGF,≤ 0.2
11,WPKW,≤ 0.2
12,KRYA,0.313
13,YQYG,≤ 0.2
14,HKTG,≤ 0.2
15,QCEK,≤ 0.2
16,ITFY,≤ 0.2
17,CLWR,≤ 0.2
18,DFLN,≤ 0.2
19,MVSV,≤ 0.2
20,ESNE,≤ 0.2
21,YEDC,≤ 0.2
22,PYLP,≤ 0.2
23,DRAL,≤ 0.2
24,TFFP,≤ 0.2

row,Variant,one-hybrid fitness for binding NBS DNA
1,YFLS,≤ 0.2
2,LSPM,≤ 0.2
3,VCND,≤ 0.2
4,TERG,≤ 0.2
5,ASVR,≤ 0.2
6,RLDH,≤ 0.2
7,SSGL,≤ 0.2
8,RLDF,≤ 0.2
9,FWGY,≤ 0.2
10,YMCE,0.227
11,TFMS,≤ 0.2
12,SVKA,≤ 0.2
13,IRGI,≤ 0.2
14,SRWT,≤ 0.2
15,ATPI,≤ 0.2
16,ITKN,≤ 0.2
17,PAVQ,≤ 0.2
18,FAAF,≤ 0.2
19,HIMG,≤ 0.2
20,NAEF,≤ 0.2
21,QNKD,≤ 0.2
22,PEGP,≤ 0.2
23,PLYM,≤ 0.2
24,WRVF,≤ 0.2

row,Variant,one-hybrid fitness for binding NBS DNA
1,SRHW,≤ 0.2
2,VAHA,≤ 0.2
3,CPGG,≤ 0.2
4,AGQG,≤ 0.2
5,LVVA,≤ 0.2
6,GYAR,≤ 0.2
7,GQPT,≤ 0.2
8,VETC,≤ 0.2
9,DAWT,≤ 0.2
10,GGVH,≤ 0.2
11,FLQR,≤ 0.2
12,TVIC,≤ 0.2
13,NYYR,≤ 0.2
14,TASC,≤ 0.2
15,PIAS,≤ 0.2
16,VAPT,≤ 0.2
17,PDTY,≤ 0.2
18,PRLV,≤ 0.2
19,CAPT,≤ 0.2
20,QCHC,0.238
21,PFSV,≤ 0.2
22,SHWH,≤ 0.2
23,RGYV,≤ 0.2
24,QSAL,≤ 0.2

row,Variant,one-hybrid fitness for binding NBS DNA
1,PARH,≤ 0.2
2,QDLM,≤ 0.2
3,PNQT,≤ 0.2
4,NLTM,≤ 0.2
5,RRVL,≤ 0.2
6,WGAS,≤ 0.2
7,GVHK,≤ 0.2
8,KWLI,≤ 0.2
9,SNRD,≤ 0.2
10,GQWI,≤ 0.2
11,SERT,≤ 0.2
12,PCLI,≤ 0.2
13,AVPC,≤ 0.2
14,TKTM,≤ 0.2
15,FNGR,≤ 0.2
16,WNTC,≤ 0.2
17,AALR,≤ 0.2
18,NHWY,≤ 0.2
19,FDRD,≤ 0.2
20,GCGT,≤ 0.2
21,ALMC,≤ 0.2
22,LADT,≤ 0.2
23,RHIA,≤ 0.2
24,SLLC,≤ 0.2

row,Variant,one-hybrid fitness for binding NBS DNA
1,CWLV,≤ 0.2
2,PRHY,≤ 0.2
3,PAMY,≤ 0.2
4,LRMS,≤ 0.2
5,FPMR,≤ 0.2
6,DGMC,≤ 0.2
7,RNWL,≤ 0.2
8,LVRD,≤ 0.2
9,ECNM,≤ 0.2
10,QDSM,≤ 0.2
11,AQQG,≤ 0.2
12,TIVS,≤ 0.2
13,EVVS,≤ 0.2
14,EDYR,≤ 0.2
15,SEQS,≤ 0.2
16,NTDV,≤ 0.2
17,YKRS,≤ 0.2
18,SLAG,≤ 0.2
19,ITFW,≤ 0.2
20,EYAS,≤ 0.2
21,NHFS,≤ 0.2
22,IGEL,≤ 0.2
23,QWKS,≤ 0.2
24,MAPV,≤ 0.2

row,Variant,one-hybrid fitness for binding NBS DNA
1,RRCL,≤ 0.2
2,TPQC,≤ 0.2
3,LERY,≤ 0.2
4,HLTS,≤ 0.2
5,ATRE,≤ 0.2
6,QVHC,≤ 0.2
7,IHPL,≤ 0.2
8,TPHF,≤ 0.2
9,KQTL,≤ 0.2
10,TPNS,≤ 0.2
11,RNGV,≤ 0.2
12,GETT,≤ 0.2
13,QTNA,0.505
14,VESH,≤ 0.2
15,DTHS,≤ 0.2
16,YMMN,≤ 0.2
17,FRCG,≤ 0.2
18,CKMR,≤ 0.2
19,ESMS,≤ 0.2
20,TEDS,≤ 0.2
21,KLRT,0.211
22,QDTP,≤ 0.2
23,DRYA,≤ 0.2
24,HSCR,≤ 0.2

row,Variant,one-hybrid fitness for binding NBS DNA
1,YTFG,≤ 0.2
2,RHPN,≤ 0.2
3,NYHG,≤ 0.2
4,LLYC,≤ 0.2
5,FEKR,≤ 0.2
6,QYNT,0.488
7,WRWP,≤ 0.2
8,QANW,≤ 0.2
9,DTAL,≤ 0.2
10,GTAW,≤ 0.2
11,FMWG,≤ 0.2
12,HYQF,≤ 0.2
13,FQIR,≤ 0.2
14,ERLA,≤ 0.2
15,HDKS,≤ 0.2
16,LTSM,≤ 0.2
17,HFKG,≤ 0.2
18,CHTV,≤ 0.2
19,HLQC,≤ 0.2
20,FTAG,≤ 0.2
21,SYSH,≤ 0.2
22,MMWG,≤ 0.2
23,TSSL,≤ 0.2
24,PFKT,≤ 0.2

row,Variant,one-hybrid fitness for binding NBS DNA
1,SARF,≤ 0.2
2,ITQW,≤ 0.2
3,SLNA,≤ 0.2
4,PQIG,≤ 0.2
5,TRCP,≤ 0.2
6,TYSM,≤ 0.2
7,KWVI,≤ 0.2
8,REFS,≤ 0.2
9,VNTY,≤ 0.2
10,TVRE,≤ 0.2
11,RHYE,≤ 0.2
12,CSNT,≤ 0.2
13,AKTV,≤ 0.2
14,MVSM,≤ 0.2
15,EAKY,≤ 0.2
16,AEIN,≤ 0.2
17,IGNT,≤ 0.2
18,AMRI,≤ 0.2
19,NEAG,≤ 0.2
20,AVYA,≤ 0.2
21,HCFS,≤ 0.2
22,RLVY,≤ 0.2
23,EQLA,≤ 0.2
24,HNTT,≤ 0.2

row,Variant,one-hybrid fitness for binding NBS DNA
1,FDRT,≤ 0.2
2,LKPP,≤ 0.2
3,NRAG,≤ 0.2
4,RESD,≤ 0.2
5,YPHG,≤ 0.2
6,AMPR,≤ 0.2
7,HRQD,≤ 0.2
8,TSKR,0.271
9,FLAG,≤ 0.2
10,NPMK,≤ 0.2
11,PRPE,≤ 0.2
12,QDNA,≤ 0.2
13,RACR,0.379
14,WDCC,≤ 0.2
15,HFWS,≤ 0.2
16,GHDS,≤ 0.2
17,MRHV,≤ 0.2
18,GSTC,≤ 0.2
19,AVVN,≤ 0.2
20,REFT,≤ 0.2
21,TMMI,≤ 0.2
22,KMRY,≤ 0.2
23,ATLM,≤ 0.2
24,VDLM,≤ 0.2

row,Variant,one-hybrid fitness for binding NBS DNA
1,ITYS,≤ 0.2
2,LHQS,≤ 0.2
3,QAGK,≤ 0.2
4,HPQS,≤ 0.2
5,HDLS,≤ 0.2
6,CNNC,≤ 0.2
7,HESR,≤ 0.2
8,QPAL,≤ 0.2
9,KAER,≤ 0.2
10,ALAS,≤ 0.2
11,TKLT,≤ 0.2
12,SCQC,≤ 0.2
13,GQQG,≤ 0.2
14,RKVC,≤ 0.2
15,HSSP,≤ 0.2
16,AKQD,≤ 0.2
17,QYKP,0.232
18,LRLT,≤ 0.2
19,IAQM,≤ 0.2
20,GRTF,≤ 0.2
21,RVNS,0.521
22,QCLA,0.304
23,ISSG,≤ 0.2
24,ARMC,≤ 0.2

row,Variant,one-hybrid fitness for binding NBS DNA
1,RLTM,≤ 0.2
2,NNKY,≤ 0.2
3,RHFG,≤ 0.2
4,WGYF,≤ 0.2
5,GAQF,≤ 0.2
6,EMYG,≤ 0.2
7,SMNG,≤ 0.2
8,RQCR,0.394
9,WMKR,0.226
10,DEIG,≤ 0.2
11,VKDC,≤ 0.2
12,RCFR,0.376
13,DNNC,≤ 0.2
14,YSIF,≤ 0.2
15,GKWS,≤ 0.2
16,RLNF,≤ 0.2
17,RERE,≤ 0.2
18,LYSI,≤ 0.2
19,QNLI,≤ 0.2
20,RSAV,≤ 0.2
21,IPAP,≤ 0.2
22,PTCV,≤ 0.2
23,HMSK,≤ 0.2
24,PDSF,≤ 0.2

row,Variant,one-hybrid fitness for binding NBS DNA
1,ARGL,≤ 0.2
2,PLSR,≤ 0.2
3,HGAR,≤ 0.2
4,AHKH,≤ 0.2
5,WGIH,≤ 0.2
6,NRKI,≤ 0.2
7,EELR,≤ 0.2
8,MQYT,≤ 0.2
9,ATIS,≤ 0.2
10,DHRC,≤ 0.2
11,YFRD,≤ 0.2
12,VYNR,≤ 0.2
13,AYWR,≤ 0.2
14,SNGC,≤ 0.2
15,PAYT,≤ 0.2
16,FGYW,≤ 0.2
17,NQHI,≤ 0.2
18,TYQR,≤ 0.2
19,VQNE,≤ 0.2
20,SGEK,≤ 0.2
21,ETRV,≤ 0.2
22,TLRR,≤ 0.2
23,RQAV,≤ 0.2
24,HPLI,≤ 0.2

row,Variant,one-hybrid fitness for binding NBS DNA
1,NDVY,≤ 0.2
2,NHKP,≤ 0.2
3,WASL,≤ 0.2
4,AQQC,≤ 0.2
5,QPAE,≤ 0.2
6,VPYA,≤ 0.2
7,WPRR,≤ 0.2
8,VTET,≤ 0.2
9,PFTG,≤ 0.2
10,PSRI,≤ 0.2
11,IRKG,≤ 0.2
12,RLEM,≤ 0.2
13,TKQC,≤ 0.2
14,GNKS,≤ 0.2
15,TTYL,≤ 0.2
16,RKWN,≤ 0.2
17,TLGM,≤ 0.2
18,SCPH,≤ 0.2
